The results in this text go back to PMC13083723 (Patterns, 2026).

Hit rate of the full screen: of about 5,400 compounds, about 190 (3.5%) showed an effect of 50% or more. This is one part of the list.

This assay concerns Vero-E6. The assay is described as follows: primary screen, phospholipidosis by LipidTOX staining; higher = more effect of the substance. Particulars: 10 µM. Put shortly:
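Single-concentration screen at 10 μM, with DMSO 0.1 v/v % and amiodarone 10 μM as controls. Read-out is LipidTOX Red phospholipid staining, which tolerates aldehyde fixation, in Vero-E6 cells.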
Take `CCOCc1nc2c(N)nc3ccccc3c2n1CC(C)(C)O`: the result_ITMP was found to be 0.48%.
The result for `Cc1cccc2c1CC[C@H](CN1CCC(c3c(Cl)cccc3Cl)CC1)C[C@@H]2O` reads 5.16%; that for `O=C(O)CNC(=O)c1nc(Cl)c2ccccc2c1O`, -2.69%; that for `NCCCC(N)(C(=O)O)C(F)F` (stereo not shown), 1.12%.
With `CCC[C@@H]1C[C@@H](C(=O)N[C@@H]([C@H]2O[C@H](SC)[C@H](OP(=O)(O)O)[C@@H](O)[C@H]2O)[C@H](C)Cl)N(C)C1` the figure was -1.73%.
The result for `O=C(N[C@@H]1CC[C@@H](c2cccc(F)c2F)CN(CC(F)(F)F)C1=O)N1CCC(n2c(=O)[nH]c3ncccc32)CC1` reads -1.74%; that for `CCCCCCCCCCCC1=C(O)C(=O)C=C(O)C1=O`, -1.73%; that for `COc1c2ccoc2cc2oc(=O)ccc12`, -2.63%.
For the molecule `Cc1ccc(NC2=NCCN2)c(Cl)c1`, the result_ITMP is on record as -3.49%.
Regarding `COC(=O)C1=C(C)NC(C)=C(C(=O)OCC(C)C)C1c1ccccc1[N+](=O)[O-]` (stereo not shown), the result_ITMP is listed as -1.79%.
`COCCn1c2c([n+](Cc3cnccn3)c1C)C(=O)c1ccccc1C2=O`: the result_ITMP is on record as -1.41%.
The result for `CCCn1c(=O)c2[nH]cnc2n(-c2ccc(Cl)cc2)c1=O` reads -8.65%; that for `CC1(C)CCC(C)(C)c2cc(C(=O)Nc3ccc(C(=O)O)cc3)ccc21`, -1.5%.
With `COc1ccc2cc(OCC3(C(=O)O)CN(C(=O)c4ccc(F)cc4)C3)ccc2c1` the figure was 10.8%; with `O=C1Cc2c([nH]c3ccc(Br)cc23)-c2ncccc2N1`, 3.76%.
For the molecule `C=C[C@@]1(C)CC(=O)[C@@]2(O)[C@](C)(O1)[C@@H](OC(C)=O)[C@@H](O)C1C(C)(C)CC[C@H](O)[C@@]12C` (stereo partly shown), the result_ITMP is given as -4.36%.
With `CN[C@@H](C)C(=O)N[C@H]1CCCC[C@H]2CCC(C(=O)N[C@@H](c3ccccc3)c3cn(CCCCc4ccc(CCCCn5cc([C@@H](NC(=O)[C@@H]6CC[C@@H]7CCCC[C@H](NC(=O)[C@H](C)NC)C(=O)N76)c6ccccc6)nn5)cc4)nn3)N2C1=O` (stereo partly shown) the figure was 8.05%; with `CC[C@@H]1/C=C(\C)C[C@H](C)C[C@H](OC)[C@H]2O[C@@](O)(C(=O)C(=O)N3CCCC[C@H]3C(=O)O[C@H](/C(C)=C/[C@@H]3CC[C@@H](O)[C@H](OC)C3)[C@H](C)[C@@H](O)CC1=O)[C@H](C)C[C@@H]2OC`, -2.4%.
The result for `Cn1cc(-c2[nH]c3cc(NC(=O)[C@H](N)C4CCCCC4)cc4c3c2C=NNC4=O)cn1` reads -5.22%.
The result for `CC1(C)CNc2cc(NC(=O)c3cccnc3NCc3ccncc3)ccc21` reads -0.14%; that for `CCCCOc1nc(N)c2c(n1)N(Cc1cccc(CN3CCCC3)c1)CC(=O)N2`, -2.95%; that for `CN(C)c1cccc(-c2c3c(=O)n(-c4ccccc4Cl)[nH]c3cc(=O)n2C)c1`, -4.23%.
Turning to `COC(=O)C1=C(C)NC(C)=C(C(=O)OCCN(C)Cc2ccccc2)C1c1cccc([N+](=O)[O-])c1` (stereo not shown), the result_ITMP worked out at 6.14%.
For the molecule `C[C@]12CCC(=O)C=C1CCC1C2[C@@H](O)C[C@@]2(C)C1CC[C@]2(O)C(=O)COC(=O)CCC(=O)O` (stereo partly shown), the result_ITMP is -1.39%.
As to `Cc1nc(C#Cc2ccnc(Cl)c2)c(C)n1-c1ccc(OC(F)(F)F)cc1`, the result_ITMP is -6.8%.
In the case of `OC[C@H]1O[C@@H](c2ccc(Cl)c(Cc3ccc(O[C@H]4CCOC4)cc3)c2)[C@H](O)[C@@H](O)[C@@H]1O`, the result_ITMP is on record as -9.54%.
With `COc1ccc(C2CC(c3ccccc3)=NN2c2ccc(S(N)(=O)=O)cc2)cc1` (stereo not shown) the figure was -11.9%; with `CCOc1ccccc1-n1c(C(C)N2CCN(C(=O)COc3ccc(Cl)cc3)CC2)nc2ccccc2c1=O` (stereo not shown), -9.74%.
For `CC(=O)N1CCN(C)CC1`, the result_ITMP is -1.39%.
With `Cc1cc(-c2ccc(CC(=O)Nc3ccc(-c4cccnc4)cc3)cc2)ccn1` the figure was -0.82%; with `C[C@H]1Oc2cc(cnc2N)-c2c(nn(C)c2C#N)CN(C)C(=O)c2ccc(F)cc21` [R4A_0001637_001 / SPE_A23124853], -7.18%; with `CN1CCN(c2c(F)cc3c(=O)c(C(=O)O)cn4c3c2SCC4)CC1`, 4.79%.
The result for `NCCCC[C@H](NC(=O)[C@@H]1CCCN1C(=O)[C@@H]1CSSC[C@H](N)C(=O)N[C@@H](Cc2ccc(O)cc2)C(=O)N[C@@H](Cc2ccccc2)C(=O)N[C@@H](CCC(N)=O)C(=O)N[C@@H](CC(N)=O)C(=O)N1)C(=O)NCC(N)=O` reads -9.53%; that for `COCCOc1ccc2c(c1)ncn2-c1ccc2cccc(N3CCC(N)CC3)c2n1`, 62.5%; that for `Cc1cc(-c2ncc(CC(=O)Nc3ccc(-c4cnccn4)cn3)cc2C)ccn1`, 24.4%.
With `O=C(O)COCCN1CCN([C@H](c2ccccc2)c2ccc(Cl)cc2)CC1`, the result_ITMP is given as -0.8%.
On to `COc1ccc2c(O[C@@H]3C[C@H]4C(=O)N[C@]5(C(=O)NS(=O)(=O)C6CC6)C[C@H]5/C=C\CCCCN(C)C(=O)[C@@H]4C3)cc(-c3nc(C(C)C)cs3)nc2c1C`, for which the result_ITMP is recorded as -1.22%.
With `Cc1cnc(C(=O)NCCc2ccc(S(=O)(=O)NC(=O)NC3CCCCC3)cc2)cn1` the figure was 1.86%; with `O=C(Cc1ccccc1)Nc1nc2ccc(Cl)cc2c2nc(-c3ccco3)nn12`, -0.77%.
In the case of `CC(C)NC[C@H](O)COc1cccc2[nH]ccc12`, the result_ITMP is -11.5%.
Regarding `CN1CCC(NC(=O)c2cc(-c3c(O)cc(O)cc3Oc3ccc([N+](=O)[O-])cc3)on2)CC1`, the result_ITMP is recorded as -1.53%.
The result for `CC(C)Cc1ccc(C(C)C(=O)O)cc1` (stereo not shown) [R4A_0001344_001 / SPE_M64062803] reads -5.52%.
As for `c1cc(-c2cnn3cc(-c4ccc(OCCN5CCCCC5)cc4)cnc23)ccn1`, the result_ITMP was determined as 27.5%.
With `O=C(c1cc(S(=O)(=O)Nc2ccccc2F)c(F)cc1Cl)N1CCN2CCC[C@@H]2C1` the figure was -2.45%; with `c1cc2c3c(c1)c1c(n3CCNC2)CCCC1`, 25.2%.
With `O=C1[C@H](CC[C@H](O)c2ccc(F)cc2)[C@@H](c2ccc(O)cc2)N1c1ccc(F)cc1`, the result_ITMP is reported as -0.02%.
Turning to `Brc1c(Br)c(Br)c2[nH]nnc2c1Br`, the result_ITMP was -8.08%.
With `O=C(CCn1cnc2c(O)ncnc21)Nc1ccc(C(=O)O)cc1` the figure was -5.54%; with `COc1ccccc1N1CCN(CCCCNC(=O)c2ccc3ccccc3c2)CC1`, 34.4%; with `CCC1NC(=O)c2cc(S(N)(=O)=O)c(Cl)cc2N1` (stereo not shown), -5.39%.
In the case of `Nc1ncnc2c1C(=O)N(c1ccc([C@H]3CC[C@H](CC(=O)O)CC3)cc1)CCO2`, the result_ITMP is reported as -1.59%.
As for `Cc1ccc2c(=O)c3ccccc3n(CCCN)c2c1C`, the result_ITMP is on record as 13.5%.
The result for `O=C([O-])C(Cl)Cl` reads -4.51%; that for `Cc1ncc(COP(=O)(O)O)c(C=O)c1O`, -4.81%; that for `Cc1n[nH]c(C)c1Cc1sc2c(c1C(=O)N1C[C@H](O)CO1)c(=O)n(C)c(=O)n2CC(C)C`, -2.38%.
The result for `CC(=C\c1ccc(Cl)cc1)/C(C)=N/O` reads -1.28%; that for `N#CN/C(=N\c1ccncc1)NCCCCCCOc1ccc(Cl)cc1`, 0.38%; that for `CC(C)c1ccc(NC(=O)c2cccs2)c(-c2nc3ccccc3[nH]c2=O)c1`, 0.78%.
With `CCCCCCCCCCCCCC(=O)OC(C)C` the figure was -2.19%; with `CC(COc1ccccc1Cc1ccccc1)N1CCCCC1` (stereo not shown), 72%.
On to `CNCC(O)c1ccc(O)cc1` (stereo not shown), for which the result_ITMP is -3.91%.
As to `C=CCNc1c(O)cc2c(O)c1C[C@@H](C)C[C@H](OC)[C@H](O)[C@@H](C)/C=C(\C)[C@H](OC(N)=O)[C@@H](OC)/C=C\C=C(/C)C(=O)N2`, the result_ITMP is on record as -1.56%.
Regarding `CC(C)NCC(O)c1ccc(N)c(C#N)c1` (stereo not shown), the result_ITMP is on record as -4.02%.
For the molecule `C=C[C@@H]1C[C@]1(NC(=O)[C@@H]1C[C@@H]2CN1C(=O)[C@H](C(C)(C)C)NC(=O)O[C@@H]1C[C@H]1CCCCCc1nc3ccc(OC)cc3nc1O2)C(=O)NS(=O)(=O)C1CC1`, the result_ITMP came to 0.35%.
The result for `CC1(C)S[C@@H]2C(N3C(=O)[C@@H](c4ccccc4)NC3(C)C)C(=O)N2[C@H]1C(=O)[O-]` (stereo partly shown) reads -1.52%; that for `CC(C)C[C@H](NC(=O)CNC(=O)[C@H](Cc1ccc(O)cc1)NC(=O)[C@H](CO)NC(=O)[C@H](Cc1c[nH]c2ccccc12)NC(=O)[C@H](Cc1c[nH]cn1)NC(=O)[C@@H]1CCC(=O)N1)C(=O)N[C@@H](CCCNC(=N)N)C(=O)N1CCC[C@H]1C(=O)NCC(N)=O`, 1.23%.
Consider `C[C@]1(COc2ccc(N3CCC(Oc4ccc(OC(F)(F)F)cc4)CC3)cc2)Cn2cc([N+](=O)[O-])nc2O1`, for which the result_ITMP is -2.16%.
For `COc1ccc(NC(=O)c2ccc(-c3ccc(-c4noc(C)n4)cc3C)cc2)cc1N1CCN(C)CC1`, the result_ITMP is 142%.
Take `CNC(C)CC1CCCCC1` (stereo not shown): the result_ITMP was determined as 6.1%.
The result for `Cc1cnc(Nc2ccc(F)cc2Cl)nc1-c1c[nH]c(C(=O)N[C@H](CO)c2cccc(Cl)c2)c1` reads 37.4%.
With `NC(=O)C1=CN([C@@H]2O[C@H](COP(=O)(O)OP(=O)(O)OC[C@H]3O[C@@H](n4cnc5c(N)ncnc54)[C@H](OP(=O)(O)O)[C@@H]3O)[C@@H](O)[C@H]2O)C=CC1` the figure was -3.53%; with `CCCCNc1ccc(C(=O)OCCN(C)C)cc1`, 6.48%; with `CC(C)=CCC/C(C)=C/CC/C(C)=C/CSc1ccccc1C(=O)O`, -2.01%.
Regarding `CO/N=C(\C(=O)N[C@@H]1C(=O)N2C(C(=O)[O-])=C(COC(N)=O)CS[C@H]12)c1ccco1`, the result_ITMP is listed as -1.04%.
The result for `CCCCCOC(=O)Nc1nc(=O)n([C@@H]2O[C@H](C)[C@@H](O)[C@H]2O)cc1F` reads 1.25%.
Regarding `CN[C@@H]1C(OC2[C@H](O[C@H]3[C@H](O)[C@@H](O)[C@H](NC(=N)N)[C@@H](O)[C@@H]3NC(=N)N)OC(C)[C@]2(O)CO)OC(CO)C(O)C1O` (stereo partly shown), the result_ITMP is on record as -3.92%.
